Measurements: the supplement of paper PMC11417369
The other results are listed elsewhere or left out.

The sequences below were run on PfSIP2 AP2 domain 1 (GST-tagged) (assay: gcPBM binding intensity (ln(normalized median fluorescence intensity)); higher = stronger DNA binding).
Summary of the method: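 An Agilent 4 × 180k array of primer-extended double-stranded 36-bp intergenic genomic probes, with negative controls, was incubated for 1 h with GST-tagged P. falciparum DNA-binding domains expressed in E. coli. Alexa488 anti-GST antibody detected bound protein, scanned at 488 nm. Binding intensity is the highest Masliner-normalised natural-log median intensity across replicate spots of either probe orientation.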

Sequence | gcPBM binding intensity (ln)
TTTTTAGGAAAGGCGGCACACATTTATATATTTATT [CACACA_site3672] | 6.78
TTCGCCCTAAATAGAGTGCATTATATATATTAATAT | 9.49
TTCCAACCAATACAAACATGCATTTGAAAAAATGTA [TGCATGCA_site119] | 6.92
TTTATTTTATCATTTGCACACGCACGCCCACATAAA [CACACA_site353] | 7.85
CAAAATATATTGAATTGTACATAAAAATAAAAATTA [XGTACX_site4193] | 6.96
AGCAGTCAGCAGGACAGTACACAGTAGCCAGTAACT [XGTACX_site1999] | 6.54
ATTTTTTTGGAATTCACACACAAAAAAAAAAATAAA [CACACA_site2081] | 7.03
AATTAGACATAATATACACACATATATTATATATAT [CACACA_site2691] | 7.71
TTCAAAAGATATATCGTGCACATATATATGATGAAA | 10.2
TGGAGATAAAATAAAACACACACATATATATATATA [CACACA_site8683] | 9.06
ATACATTCTTATTACTGTACAGGGTTAATTATTTGT [XGTACX_site948] | 7.23
ATTATTTTATTTATTGGTACGTAATTGTAGATTTCT [XGTACX_site3697] | 7.01
GCAAAAACAAACGTCACACATACAAAGGCCGTGTAA [CACACA_site6043] | 6.65
ATGTTGAGTATATATACACACATACAGATATATATA [CACACA_site4967] | 7.16
TAGGTATATAAATAATGTACATATAAACTATATAGA [XGTACX_site2597] | 7.06
TCCACACAATTTATAACATGCAAAAAGGCAATAATA [TGCATGCA_site773] | 7.06
TTCTCAAAGAAGAAAAAGTTTTTTTAATTTTTCTTT [XGTACX_negctrl_site543] | 6.65
AACCAATTATATTTACGTACGTACGGTTTTTTATAT [XGTACX_site1291] | 7.07
ACATATAAAATGTATACACACAAATATTACATATAT [CACACA_site1472] | 7.15
AATAAAAAATATAACACAAATATGTATATATATATA [TGCATGCA_negctrl_site245] | 7.91
CAAAAAAAAAAAAAAAATAAATAAAGGAAATAAAAA [CACACA_negctrl_site20] | 6.54
AATATATTTTTTTTTTGTACATATTGTAAAATAATA [XGTACX_site6805] | 6.99
ATATATTAATATACTCGTACATATTCTTATTGTGTA [XGTACX_site3728] | 6.92

Sequence | gcPBM binding intensity (ln)
GTGTAGTTAAAAAAAAGTACAGATTTTTTTTTTTTT [XGTACX_site849] | 7.2
AAAAAAAAAAAAACAAGTACAAAGGATAGAAAAAAA [XGTACX_site4133] | 7.22
ATAGAATATTGATATTGTACGTTATCTTAAAACAAT [XGTACX_site1702] | 7.08
ATAAGAACGTCTATGTGTACGCAGCAAAACTGAGTT [XGTACX_site6385] | 6.71
CACATTTAGAAATAGTTTTATTTTGTATATTCTATT [CACACA_negctrl_site1382] | 6.72
TATACATTTATGTACACACACATATCTGTATATTTA [CACACA_site5617] | 6.95
TTTTGTATATATCACATTAAAAGAAAAAAATATATG [GTGCAC_negctrl_site120] | 6.95
GTATGTGTATGTGTATGTACATATGTATGTATAAAA [XGTACX_site8191] | 7.59
TATATATATTTCCAGTGTACTTATTTTTTAATCAAT [XGTACX_site8220] | 7.28
TAAAATATATTGCCAGTGCATAATATATGTAATTAT | 7.63
TTTTTTAAATATTAAAAATGGGATCTTATAACATAT [GTGCAC_negctrl_site666] | 6.91
TGTATAAACCCACGTACACACACTAAGTATATCCAA [CACACA_site1605] | 7.38
AACTAATAAAAAAAAAAAACATTAAACAGGACAAAT [XGTACX_negctrl_site287] | 6.92
TAAACAAATAAATAAACACACAATATAGGTATATAT [CACACA_site7739] | 7.13
TTATTTTTAACGTACGCACACATATAAATATATTTA [CACACA_site1976] | 7.35
AATAAAATATACTATTGTACATATGGAACTACTTGA [XGTACX_site8928] | 6.89
TTGTTTTTAGTTTATACACACCATATTAAAATAATG [CACACA_site5675] | 7.32
ATTTATTATATATAGTGTACGTTCTTAATTATAATT [XGTACX_site7480] | 7.02
TTGTATTACATAAATGTTCTTTATTATTTGATAAAA [CACACA_negctrl_site903] | 6.79
TATATAATATATTAATGTACTTAAAATATATTCTAT [XGTACX_site1235] | 6.96
TTTATTTTAAATTTACGTACATAATTAATCATATTT [XGTACX_site7529] | 7.23
ATAAAAAATTAGGACTGTACATAATTTTTGTGATTT [XGTACX_site2857] | 6.86
TATATATATAAGGATAGTACATATATTTATATGATT [XGTACX_site4954] | 8.8

Sequence | gcPBM binding intensity (ln)
ATGAAATTTATATCATGTACATACAAGAGAAAAAAA [XGTACX_site3326] | 7
AAAATTATAAAATGGGCACACATGAATATTGTAGTA [CACACA_site5261] | 6.82
GTATAATAAATGATAGCACACATATGTACTTATATA [CACACA_site8188] | 7.12
TTATATATTTCTATTGCACACTATATTTTATGAAGA [CACACA_site2910] | 7.36
TTAACTTATTTGTAAAGTACATTAATAAAAAGAAAA [XGTACX_site1588] | 6.91
GACTACACACAAGGGTGTACATATATATTATATATA [XGTACX_site2247] | 7.31
AGGTTATAATTGTTTTCACACATTTAAAAATGTTAT [CACACA_site5097] | 7
TTATAAAAATACAGTTAACACACATGTGTATATATA [CACACA_site9257] | 6.99
AAAAAAAAAATATACACACACACATACCCATAAATA [CACACA_site5981] | 7.01
GATCGCATGAAATGAACACACATAAAAAAAATATAC [CACACA_site4087] | 7.42
AAAATAATCTTATGCACACCAAAAATTTATATAATC [CACACA_site1235] | 7.76
TAATGCAACATTTATGTGCACATAAATATTTTTTAA | 8.13
AAAACACAATTTATTACACACATATATTATAGATTA [CACACA_site6780] | 6.77
GAGTTTTAATGTAATAGTACTTTAATTATTATATAT [XGTACX_site4527] | 6.97
TTTTTTTTTTATTCATGTACGTATTTAAATAATTCT [XGTACX_site2651] | 6.94
ATCTTTTATATATTCACACATAAAATTATACAGATA [CACACA_site5277] | 7.38
ATATATATATATAATGCACACATTATAAATTATGTA [CACACA_site5802] | 9.09
AATAAATAAATAAATATATATATATATATATATATA [CACACA_negctrl_site708] | 9.71
TATTTTTATTTTACATTATTTGTTTATAATTCTTAA [CACACA_negctrl_site1358] | 7.08
TGTATATACATAAAGTGTACGTATATTTATATATAT [XGTACX_site4320] | 7.98
AAAAAAAAAAAAAACACACAAACAAATGAATAAATA [CACACA_site3300] | 7.13
TAATTATACTTATTTTGTACGCAATATTTAAAATAA [XGTACX_site8516] | 6.99
ATTTCTCTATCGTAATGTACAAAAAAAAGGAAAAAA [XGTACX_site1323] | 7.14

Sequence | gcPBM binding intensity (ln)
ACATATAAATGATATGTACACACATTTATATATATA [CACACA_site9152] | 8.17
GACAAATGAAAAGATTGTACATGTATTTGAAGATTA [XGTACX_site6775] | 6.84
TGATTATATATAAATGTATGCATGTCTATTATGCTA [TGCATGCA_site543] | 6.89
TACACAAAAATTTATACACACACATATATAATATAT [CACACA_site7931] | 7.13
TCTTTTATATTTTTTTGTACACAAGAATAAAGAAAA [XGTACX_site3394] | 7.17
TATATATATATATATTGTACACATACATGTAGTTTT [XGTACX_site4848] | 9.7
TATATATATATATAGGTGCAATATTGAAAAAATATC [GTGCAC_site9535] | 9.82
AAAGTAATATATAATACATGCGTAAATATTTATGTA [TGCATGCA_site254] | 7
TTTTGGATGAACAGTACATGCAAAAACAAACTTGTA [TGCATGCA_site16] | 6.79
TGCTTCTTTTAAAAACATGTTTGTATTCATTTTATA [CACACA_negctrl_site1627] | 7.33
ACAAAAAGTTACATACGTACGTAAAATTGTAATAAA [XGTACX_site2358] | 6.96
ATAATACCATTAATTTGTACATATATATTATATATA [XGTACX_site4345] | 7.12
ATTATATTATATATATGTACATATATATATCATAAT [XGTACX_site1] | 7.04
TGTAATATATGTATTGCACACCTATAACCATTATTT [CACACA_site8422] | 7.17
TATAAGTGCCGTTATACACACGTTATATAAATATTA [CACACA_site4401] | 7.06
ATAATTATATTTAGTGGTACTACTTTTGATAATTAG [XGTACX_site6562] | 6.79
AAATGTGAAAAAGAGTGTACCCGACTTGAAATTAAG [XGTACX_site8621] | 7.25
AGTAGAATATCCCCTACACACCCAAGTAATTTACAA [CACACA_site6708] | 7.09
AATTAAAAGTGAAGAGTGCATAGAATTTTTTACTTT [GTGCAC_site9973] | 8.35
TTTAATTTTCAATGGCGTACATATAAAATATTATAT [XGTACX_site1672] | 7.43
